Laboratory results reported in PubChem BioAssay AID445 (National Center for Advancing Translational Sciences (NCATS), 2006).
Hit rate of the full screen: of about 110,000 compounds, about 40 (0.04%) were called active. The inconclusive results got no clear call from the source; some entries with a clear call stand among them for comparison. Calls follow the shape of the dose curve; as a rule, active = well fitted curve in the direction sought with a large enough effect in the signal ratio (not every such curve was filed as active); inconclusive = small, poorly fitted or top-dose-only effect, or a change in a side signal; inactive = flat fitted curve, though single readings scatter; the % refers to the signal ratio.

Test: IkB Signaling;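 also: 0% = basal untreated cells and 100% = reference inhibitor full response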
Conditions: ABC-DLBCL IkBa-CBG/CBR dual luciferase ratio (green luciferase fused to IkBa over red control in OCI-Ly3 lymphoma cells), 4 h; IkBa stabilization activation: at 57.1 µM (top of the series), scaled: untreated 0%, proteasome inhibitor 100% unless noted
In short: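 In this assay, an IκBα–CBG68 fusion accumulates when IKK-driven degradation is blocked; native CBR normalizes for cell number. OCI-Ly3 cells were treated 4 h with compound and doxycycline, then green and red light read after Chroma-Glo addition.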

Row | Compound | IkBa stabilization activation
1 | COc1ccc(OC)c(CCNC(=O)c2cc3cccc4c3n2CC(C)S4)c1 (centres undefined) | inconclusive: -0.128% [signal inhibitor]
2 | COc1cccc(N2CCN(C(=O)C3CCCN(S(=O)(=O)c4ccc5c(c4)oc(=O)n5C)C3)CC2)c1 (centres undefined) | inconclusive: 2.68% [signal inhibitor]
3 | O=C1C(=O)N(C2CCN(S(=O)(=O)c3ccccc3)CC2)CCN1Cc1ccccc1 | inactive
4 | COc1cccc(CC(=O)Nc2ccc(-c3nc4ccccc4s3)cc2Cl)c1 | inactive
5 | Cc1ccnc(NS(=O)(=O)c2ccc(NC(=O)C3CCCCC3)cc2)n1 | inconclusive: 12.4% [signal inhibitor]
6 | Cc1ccc2nc(-c3ccc(F)cc3)c(NC(C)(C)CC(C)(C)C)n2c1 | inconclusive: -0.159% [signal inhibitor]
7 | COc1ccc(NC(=O)CN2CCN(Cc3ccccc3Cl)S2(=O)=O)cc1Cl | inconclusive: 0.54% [signal inhibitor]
8 | CCCN1C(=O)C(O)(CC(=O)c2ccc(C(C)C)cc2)c2ccccc21 (centres undefined) | inconclusive: 4.61% [signal inhibitor]
9 | O=C(c1cc(C(F)(F)F)cc(C(F)(F)F)c1)N1CCC2(CCN(Cc3ccncc3)CC2)CC1 | inactive: 2.24% [at 11.4 µM, scaled: untreated 0%, proteasome inhibitor 100%]
10 | CN1CCN(Cc2c(O)ccc3cc(-c4ccc(Cl)cc4)c(=O)oc23)CC1 | inconclusive: -0.961% [signal inhibitor]
11 | Cc1nc2c(-c3ccc(F)cc3)c(C)nn2c(C)c1CCC(=O)NC(C)CCc1ccco1 (centres undefined) | inconclusive: 4.77% [signal inhibitor]
12 | O=C(Nc1ccc2nc(-c3ccco3)[nH]c2c1)c1ccco1 | inactive
13 | CCN(C(=O)Cn1c(=O)oc2cc(S(=O)(=O)N3CCCCC3)ccc21)c1ccccc1 | inconclusive: 1.55% [signal inhibitor]
14 | CCc1cccc(NC(=O)CCc2c(C)nc3c(-c4ccccc4)c(C)nn3c2C)c1 | inconclusive: 3.01% [signal inhibitor]
15 | CCOC(=O)CC(NC(=O)c1cc2c(=O)n3cccc(C)c3nc2s1)c1ccc(OCC)c(OC)c1 (centres undefined) | inactive
16 | CCOC(=O)c1[nH]c(C)c(C(=O)NCc2ccc(OC)cc2)c1C | inactive
17 | Cc1ccc(NC(=O)Cn2c(=O)n(CC(=O)NCCc3ccccc3)c(=O)c3ccccc32)cc1C | inconclusive: 0.357% [signal inhibitor]
18 | CCCn1nc(-c2nnc(-c3ccc(C)c(C)c3)o2)c2ccccc2c1=O | inconclusive: 3.49% [signal inhibitor]
19 | C=CCOc1cccc(C2/C(=C(/O)c3ccc(Cl)cc3)C(=O)C(=O)N2CCN2CCOCC2)c1 (centres undefined) | inactive
20 | Cc1ccc(S(=O)(=O)c2cn(CC(=O)Nc3ccc(F)cc3)c3cc4c(cc3c2=O)OCO4)cc1 | inconclusive: 8.08% [signal inhibitor]
21 | NC(=O)C1=CN([C@@H]2O[C@@H](COP(=O)(O)OP(=O)(O)OC[C@@H]3O[C@H](n4cnc5c(N)ncnc54)[C@@H](OP(=O)(O)O)[C@@H]3O)[C@H](O)[C@@H]2O)C=CC1 | inactive
22 | CC(=O)C1(O)C(C)CC2C3CCC4CC(O)CCC4(C)C3=CCC21C (centres undefined) | inactive

Row | Compound | IkBa stabilization activation
23 | CCOC(=O)c1ccc(N2C(=O)CC(SCC(N)C(=O)OCC)C2=O)cc1 (centres undefined) | inactive
24 | COc1ccc(C)cc1NC(=O)C(=O)NCC(c1cccnc1)N1CCN(c2ccccc2F)CC1 (centres undefined) | inconclusive: 1.57% [signal inhibitor]
25 | CCc1cc(C(=O)OC)c(N2C(=O)C3C4C=CC(C4)C3C2=O)s1 (centres undefined) | inactive
26 | Cc1cc(C)c2nc(N3CCCC(C(=O)NCc4ccccc4F)C3)sc2c1 (centres undefined) | inconclusive: 1.21% [signal inhibitor]
27 | Cc1ccccc1C(=O)Nc1cc2c(cc1N1CCCCC1)n(C)c(=O)n2C | inactive
28 | COc1cccc(C(=O)Oc2c(Sc3ccc(C)cc3)c(C)nn2C(C)(C)C)c1OC | inconclusive: -2.15% [signal inhibitor]
29 | CC(=O)N(C(C)=O)c1ncc2c([nH]c3ccccc32)c1C#N | inactive
30 | CC(C)Cc1nn2c(=O)cc(COC(=O)c3ccc(NC(=O)C4CCCCC4)cc3)nc2s1 | inactive
31 | CC1CCCN(c2nc3c(c(=O)n(C)c(=O)n3C)n2Cc2ccccc2)C1 (centres undefined) | inconclusive: 3.31% [signal inhibitor]
32 | CCOc1ccccc1NC(=O)c1ccc(F)c(S(=O)(=O)N2CCN(c3ccc(F)cc3)CC2)c1 | inconclusive: 4.96% [signal inhibitor]
33 | O=C(NCc1nnc(SCC(=O)N2CCC(Cc3ccccc3)CC2)o1)c1ccccc1F | inconclusive: 1.32% [signal inhibitor]
34 | O=C1COc2ccc(C(=O)CSc3nnc(Cc4cccs4)n3-c3ccccc3)cc2N1 | inconclusive: 4.27% [signal inhibitor]
35 | Cc1cccc(C(=O)N2CCc3cc(CNC(=O)CSc4ccccc4)ccc32)c1 | inconclusive: -1.9% [signal inhibitor]
36 | CCOc1ccc(C(=O)NCCSc2c(C)[nH]c3ccccc23)cc1OCC | inactive
37 | Cc1ccc2nc(-c3ccc(Cl)s3)c(Nc3ccc4c(c3)OCCO4)n2c1 | inconclusive: 5.71% [signal inhibitor]
38 | COc1cccc(-n2c(SCc3ccc(F)cc3)nc3c([nH]c4ccccc43)c2=O)c1 | inconclusive: 0.795% [signal inhibitor]
39 | COC(=O)c1ccc(NC(=O)CN(C)S(=O)(=O)c2ccc(Br)s2)cc1 | inconclusive: 8.16% [signal inhibitor]
40 | CCN(CC)CCCNC(=O)c1cn(C)c2ccc(S(=O)(=O)N(C)C)cc2c1=O | inactive
41 | Cc1nn2c(C)c(C(=O)NCc3ccc(OC(C)C)cc3)cnc2c1-c1ccc(F)cc1 | inconclusive: 5.52% [signal inhibitor]
42 | CCN(CCCNC(=O)c1nn(-c2ccc(C)cc2)c(=O)c2c1c1ccccc1n2C)c1cccc(C)c1 | inactive
43 | CCN1CCN(Cc2ccccc2NC(=O)Nc2ccc(C)cc2)CC1 | inactive
44 | CCn1c(=O)cc(OCC(=O)N2CCN(c3cccc(C)c3C)CC2)c2ccccc21 | inconclusive: -1.41% [signal inhibitor]
